Measured values reported in PubChem BioAssay AID1918958 (Molecular Pharmacology Branch, DTP, NCI, 2023).
Some entries of the source have several records that differ or are many. The list is limited to them. An entry can have further records. Results that share an entry are repeated measurements (runs, samples, wells, individuals or studies). Marks such as (2×) give the number of equal values in this list.

Tested on: NCI-H196 complex spheroid viability
Experiment: Anticancer human tumor NCI-H196 cell line growth inhibition [LSD1];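 note: spheroids exposed to agents for 7 days before readout; 100% = DMSO vehicle control viability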
Conditions: stronger effect = lower value
Source text: Multicellular complex tumor spheroid response to LSD1 Inhibitor Iadademstat in combination with a variety of drugs and investigational agents in selected tumor cell lines
The current study was undertaken to assess response to LSD1 inhibitors in combination with standard-of-care drugs and investigational agents in solid tumor complex spheroid models as well as in the K-562 leukemia. Complex spheroids include a stromal component modeled by human endothelial cells (HUVEC) and fibroblasts modeled by human mesenchymal stem cells (MSCs). The concentration ranges selected for each drug and investigational agent were based upon clinically achievable concentrations if the clinical Cmax of the agent was known.
Compounds. The drugs and investigational agents used in this study are listed on Table 1. All of the agents used, including staurosporine (NSC755774) and gemcitabine (NSC613327), were obtained from the Developmental Therapeutics Program, NCI. FDA-approved anticancer drugs are available from the NCI at http://dtp.nci.nih.gov/branches/dscb/oncology_drugset_explanation.html. Drugs and investigational agents were >95% pure by proton nuclear magnetic resonance (NMR) and liquid chromatography/mass spectrometry (LC/MS). Stock solutions were prepared at 400x in DMSO, stored at -70 degrees C, and diluted in fresh medium prior to their use. The final concentration of DMSO in cell culture wells never exceeded 0.25% (v/v). The FDA-approved anticancer drug set is available from the Developmental Therapeutics Program at https://dtp.cancer.gov/organization/dscb/obtaining/available_plates.htm. All drugs and investigational agents were tested over a range starting from a high concentration at or near the clinical Cmax and decreasing in half-log increments. If the clinical Cmax for an agent had not been determined, the highest concentration tested was 10 microM.
Cell Lines. […]

SMILES | viability, T/C (compound alone 3.16 µM) | viability, T/C (compound alone 10 µM) | viability, T/C (compound alone 0.1 µM)
NC1CC1c1ccc(-c2cccc(O)c2)cc1 (stereo not drawn) | 111, 92.7, 92, 104 (2×), 96.8, 108, 98.6, 96.1, 89.2, 100, 81.2, 98.9, 103 (2×), 101, 97, 90.2, 98.2, 107, 93.2, 102, 106, 97.3, 95.7% | 97.6, 92.5, 93.2, 110 (2×), 91.9, 101, 96.5, 87, 94.6, 95.9, 84, 94.5, 108, 95.2, 87.6, 93.8, 91.6, 97.2, 92.1, 94.2, 99.6, 99.4, 98.1, 99.2% | 
NC1CCC(NC2CC2c2ccccc2)CC1 (stereo not drawn) |  |  | 94.8, 88.3, 89.1, 85.6, 93.4, 93.3, 115, 100 (2×), 94.9, 101, 94.2, 102, 96, 98.1, 107 (2×), 106, 97.3, 103, 104, 92.2, 97.4, 97.5, 98.6%
